Laboratory results: paper PMC4242493
The other results are listed elsewhere or left out. The list includes weakly bound sequences.

biological target: MaxL homodimer (UniProt P61244); test: universal protein-binding microarray (PBM); conditions: PBS-based mixture, 10 nM His-tagged protein dimer, 2% milk, 200 ng/uL BSA, 50 ng/uL salmon testes DNA, 0.02% TX-100; detection with Alexa 488 anti-His …; high values mean tight binding; most listed sequences are background and not binding sites; double strand, one strand shown
Chain of UniProt P61244 (P61244 whole entry): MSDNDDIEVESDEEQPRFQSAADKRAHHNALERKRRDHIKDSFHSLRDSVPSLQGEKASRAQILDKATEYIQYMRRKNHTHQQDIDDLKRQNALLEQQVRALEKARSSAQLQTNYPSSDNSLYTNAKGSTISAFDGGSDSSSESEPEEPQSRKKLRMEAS

| Sequence | binding signal (normalized occupancy) |
| --- | --- |
| TAATGGCA | 0.0779 |
| CATGTATA | 0.089 |
| GTCGAACA | 0.0741 |
| AAATAAAA | 0.079 |
| CATGGCTC | 0.09 |
| CCACAGAC | 0.0741 |
| CACCCATC | 0.0827 |
| AATGCCGC | 0.0765 |
| CCCTAACA | 0.0728 |
| AATAAGAG | 0.0738 |
| GGCAACAA | 0.0717 |
| AGTGTCCC | 0.0718 |
| ATTCCACG | 0.0964 |
| GATTCTGC | 0.0697 |
| CAAATAGG | 0.0768 |
| TTCCCGAA | 0.0701 |
| AATCGAAA | 0.0785 |
| CCGGGCGA | 0.0712 |
| CGGATACG | 0.0726 |
| CGCACAGC | 0.0728 |
| CTTACTCA | 0.0702 |
| CATGAGCG | 0.0868 |
| GGCTCACC | 0.0732 |
| GTATGTTA | 0.0849 |
| GGAAGGGA | 0.0683 |

| Sequence | binding signal (normalized occupancy) |
| --- | --- |
| AAAGCCCT | 0.0675 |
| CCCAAGGA | 0.0711 |
| CCAGGGTC | 0.0678 |
| GTGAAAGA | 0.0834 |
| TCGAAACA | 0.0722 |
| GGACCCTA | 0.0749 |
| ACCGTCTG | 0.0693 |
| AGGAGGGA | 0.0746 |
| TCCGATAA | 0.076 |
| ATCTCATA | 0.076 |
| GAATCAGC | 0.0733 |
| ATGAAGAA | 0.0767 |
| GGTGTCGA | 0.0764 |
| AAGTTCTA | 0.0746 |
| CGGCCCCA | 0.0745 |
| AAACGCAA | 0.0718 |
| GTTTGGTA | 0.0755 |
| ACTCGTAG | 0.0707 |
| GCGGATTA | 0.0783 |
| ACGGCACT | 0.0734 |
| CTATAAGC | 0.0801 |
| TAAAAGGA | 0.0684 |
| GCATTGAC | 0.0831 |
| GGCCCAGA | 0.0698 |
| TAGATAAA | 0.0755 |

| Sequence | binding signal (normalized occupancy) |
| --- | --- |
| AAAGTAGT | 0.073 |
| CATGGTGG | 0.0938 |
| GTACTAAC | 0.0746 |
| CCGGCGCC | 0.0683 |
| ATCCGTAG | 0.0735 |
| AAGGCGTC | 0.0778 |
| ACTCGTCA | 0.0793 |
| AGTAGGTA | 0.0741 |
| ATGTTGTG | 0.0817 |
| AGTCAAGC | 0.0708 |
| CAGACGAC | 0.0794 |
| AAGCTGCG | 0.0657 |
| GCTAGCCC | 0.0715 |
| CCATGTGA | 0.154 |
| ACACCACG | 0.0983 |
| CGCCCGAG | 0.0641 |
| GAATAAAA | 0.0745 |
| GAGGGTCC | 0.0747 |
| AAACTAAC | 0.0741 |
| ATGACAGG | 0.076 |
| CGACCGGA | 0.07 |
| CCGATGTA | 0.0736 |
| CGTTCATC | 0.0768 |
| GAACGTGC | 0.0931 |
| CCATGGGA | 0.0939 |

| Sequence | binding signal (normalized occupancy) |
| --- | --- |
| CTGCTCTA | 0.0709 |
| CATTATGA | 0.0869 |
| GAACTTGC | 0.0753 |
| CAGCCCTG | 0.0675 |
| AACATAGC | 0.0753 |
| ATTGAGTC | 0.0771 |
| AGCGTAGG | 0.0668 |
| GAAAGTAA | 0.0685 |
| GCTTAATA | 0.0802 |
| CGACACGA | 0.0818 |
| CGGACGTA | 0.0687 |
| ACGCCGAG | 0.0736 |
| AATCCGTC | 0.0705 |
| CTCACCGC | 0.0702 |
| ACAAAACT | 0.0722 |
| GAAAACGA | 0.0726 |
| AGTGCCAT | 0.0795 |
| AGACGTCA | 0.0744 |
| AAGCCAAT | 0.075 |
| GACGAGCC | 0.0666 |
| CCTTGATA | 0.0778 |
| AACAGGGT | 0.0754 |
| GCTTCAAC | 0.0725 |
| TTGGCCAA | 0.0667 |
| AGCCTGGG | 0.0676 |

| Sequence | binding signal (normalized occupancy) |
| --- | --- |
| CGCTGTGC | 0.0667 |
| CCGATCAG | 0.0753 |
| GTCATAAC | 0.0769 |
| GTTGTCGA | 0.0773 |
| CTGGTTTC | 0.0722 |
| GGTACTGA | 0.0736 |
| TAGCACAA | 0.0756 |
| AAGGTCCC | 0.0716 |
| CCATTCAG | 0.0765 |
| TCCGCAAA | 0.0731 |
| GCCCACAC | 0.0865 |
| CTGATTTA | 0.0747 |
| AAAGTCAG | 0.072 |
| CGGTTTAA | 0.0746 |
| GCCAGTAC | 0.0725 |
| AGAGATCC | 0.0829 |
| CTCCCACC | 0.0797 |
| AGCTGCCA | 0.0736 |
| AACTCCTG | 0.073 |
| ACAAGCAG | 0.0746 |
| AGTACCCG | 0.0738 |
| CTAGCAAC | 0.0846 |
| CAAACTAC | 0.075 |
| CGAGAGCC | 0.0663 |
| CGGAAACG | 0.0704 |

| Sequence | binding signal (normalized occupancy) |
| --- | --- |
| GGCAGTAC | 0.0749 |
| GAGCCATA | 0.078 |
| GGACCGGA | 0.0692 |
| AATTTGCC | 0.0682 |
| GGAAGCGA | 0.0757 |
| ACTCAACT | 0.0702 |
| AGATGAGG | 0.0788 |
| AATCCAGC | 0.0674 |
| TCGGGGAA | 0.0737 |
| AACACACG | 0.0945 |
| ACGCCTGG | 0.0735 |
| AACGAAGG | 0.071 |
| CGCTCACG | 0.0789 |
| GGTGCTAA | 0.0771 |
| ACCACAGT | 0.0708 |
| TTACGCAA | 0.0727 |
| ACTGTTAA | 0.0758 |
| ATGATCAG | 0.0773 |
| AAGTCGAG | 0.068 |
| ACGATAAG | 0.0793 |
| TACCCGTA | 0.0757 |
| TTCCGGAA | 0.0665 |
| CATACTGG | 0.0812 |
| CCTAGCAA | 0.0774 |
| ACAGGAAA | 0.0719 |

| Sequence | binding signal (normalized occupancy) |
| --- | --- |
| CAAGAAGG | 0.0798 |
| AATTGCGG | 0.069 |
| ACCGTATG | 0.082 |
| ACGGCGCT | 0.0669 |
| CAGGAAGC | 0.0716 |
| CGATCAAC | 0.0753 |
| AAATCAGA | 0.0744 |
| CCGCGGAG | 0.0679 |
| CGAAGAAG | 0.0706 |
| ACCGTTCA | 0.0774 |
| ACCGAATC | 0.0769 |
| ATTCTAGC | 0.0768 |
| CACCCTAC | 0.0851 |
| AAAAAAGC | 0.0702 |
| CTAATACC | 0.076 |
| CCTCGCAC | 0.0828 |
| ATTGCACG | 0.0822 |
| CGCTTGGC | 0.0679 |
| ATGGGTGG | 0.0852 |
| TACTAACA | 0.0798 |
| AGCATCCG | 0.0757 |
| TCACACGA | 0.0859 |
